Structures can show the parent of a compound that is named as a salt. In all, about 1,900 compounds were measured (“cell viability of compound + 1 nM pemigatinib relative to pemigatinib-only (DMSO) wells”: median about 0.95, lowest 2% from about 0.22 on). This is one part of the list.
tested on: PDC-DUC18828; experiment: cell viability of compound + 1 nM pemigatinib relative to pemigatinib-only (DMSO) wells (fraction); PDC-DUC18828 is a patient-derived cholangiocarcinoma cell line; higher = less growth inhibition; conditions: first compound 1 µM; pemigatinib concentration 1 nM; 72 h
Procedure: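 Selleck Bioactive library screen in the patient-derived FGFR2 fusion-positive ICC cell line PDC-DUC18828 (500 cells/well). Each compound was tested at 1 uM with 1 nM pemigatinib, in triplicate, for 72 h. Viability was read by CellTiter-Glo and normalised to plate DMSO controls. Value is the paper's averaged normalised viability.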

SMILES	cell viability
COc1ccc(CCN(C)CCCC(C#N)(c2ccc(OC)c(OC)c2)C(C)C)cc1OC (stereo not drawn) [Verapamil HCl] + CCN1C(=O)N(c2c(F)c(OC)cc(OC)c2F)Cc2cnc3[nH]c(CN4CCOCC4)cc3c21 [pemigatinib]	1.02
CO/N=C(\C(=O)N[C@@H]1C(=O)N2C(C(=O)OCOC(=O)C(C)(C)C)=C(/C=C\c3scnc3C)CS[C@H]12)c1csc(N)n1 [Cefditoren Pivoxil] + CCN1C(=O)N(c2c(F)c(OC)cc(OC)c2F)Cc2cnc3[nH]c(CN4CCOCC4)cc3c21 [pemigatinib]	0.972
Oc1ncnc2[nH]ncc12 [Allopurinol] + CCN1C(=O)N(c2c(F)c(OC)cc(OC)c2F)Cc2cnc3[nH]c(CN4CCOCC4)cc3c21 [pemigatinib]	0.987
CN(N=O)C(=O)NC1C(O)OC(CO)C(O)C1O (stereo not drawn) [Streptozotocin (STZ)] + CCN1C(=O)N(c2c(F)c(OC)cc(OC)c2F)Cc2cnc3[nH]c(CN4CCOCC4)cc3c21 [pemigatinib]	0.991
C=C[C@]1(C)C[C@@H](OC(=O)CS[C@@H]2C[C@H]3CC[C@@H](C2)N3C)[C@]2(C)[C@H](C)CC[C@]3(CCC(=O)[C@H]32)[C@@H](C)[C@@H]1O [Retapamulin] + CCN1C(=O)N(c2c(F)c(OC)cc(OC)c2F)Cc2cnc3[nH]c(CN4CCOCC4)cc3c21 [pemigatinib]	0.93
O=C(CCc1ccc(O)cc1)c1c(O)cc(O)cc1O[C@@H]1O[C@H](CO)[C@@H](O)[C@H](O)[C@H]1O [Phlorizin] + CCN1C(=O)N(c2c(F)c(OC)cc(OC)c2F)Cc2cnc3[nH]c(CN4CCOCC4)cc3c21 [pemigatinib]	0.918
COc1ccccc1C(=O)Nc1cc2c(cc1N1CCCC1)n(C)c(=O)n2C + CCN1C(=O)N(c2c(F)c(OC)cc(OC)c2F)Cc2cnc3[nH]c(CN4CCOCC4)cc3c21 [pemigatinib]	0.942
C=CC(=O)Nc1cccc(C)c1Nc1ncc2cc(-c3c(Cl)c(OC)cc(OC)c3Cl)ccc2n1 + CCN1C(=O)N(c2c(F)c(OC)cc(OC)c2F)Cc2cnc3[nH]c(CN4CCOCC4)cc3c21 [pemigatinib]	0.8
C[C@]12CCC(=O)C=C1CC[C@@H]1[C@@H]2[C@@H](O)C[C@@]2(C)[C@H]1CC[C@]2(O)C(=O)CO [Hydrocortisone] + CCN1C(=O)N(c2c(F)c(OC)cc(OC)c2F)Cc2cnc3[nH]c(CN4CCOCC4)cc3c21 [pemigatinib]	0.913
O=C(C=Cc1ccccc1)NC(NC(=S)Nc1ccc(Cl)cc1)C(Cl)(Cl)Cl (stereo not drawn) + CCN1C(=O)N(c2c(F)c(OC)cc(OC)c2F)Cc2cnc3[nH]c(CN4CCOCC4)cc3c21 [pemigatinib]	0.939
Nc1nc(Cl)nc2c1ncn2[C@H]1C[C@H](O)[C@@H](CO)O1 [Cladribine] + CCN1C(=O)N(c2c(F)c(OC)cc(OC)c2F)Cc2cnc3[nH]c(CN4CCOCC4)cc3c21 [pemigatinib]	0.409
O=C([C@@H](Cc1cccc(C(F)(F)F)c1)NS(=O)(=O)c1cc(F)c2c(c1)CCNC2)N1CCCC1 + CCN1C(=O)N(c2c(F)c(OC)cc(OC)c2F)Cc2cnc3[nH]c(CN4CCOCC4)cc3c21 [pemigatinib]	1.05
Cc1cc(C(=O)NOCCO)c(Nc2ccc(I)cc2F)n(C)c1=O + CCN1C(=O)N(c2c(F)c(OC)cc(OC)c2F)Cc2cnc3[nH]c(CN4CCOCC4)cc3c21 [pemigatinib]	0.48
CC1(C)S[C@@H]2[C@H](NC(=O)[C@H](N)c3ccc(O)cc3)C(=O)N2[C@H]1C(=O)O [Amoxicillin Sodium] + CCN1C(=O)N(c2c(F)c(OC)cc(OC)c2F)Cc2cnc3[nH]c(CN4CCOCC4)cc3c21 [pemigatinib]	1.03
CC1(C)S[C@@H]2[C@H](NC(=O)[C@H](N)c3ccc(O)cc3)C(=O)N2[C@H]1C(=O)O [Amoxicillin] + CCN1C(=O)N(c2c(F)c(OC)cc(OC)c2F)Cc2cnc3[nH]c(CN4CCOCC4)cc3c21 [pemigatinib]	0.858
COc1cccc2c1C(=O)c1c(O)c3c(c(O)c1C2=O)C[C@@](O)(C(=O)CO)C[C@@H]3O[C@H]1C[C@H](N)[C@H](O)[C@H](C)O1 [Doxorubicin (Adriamycin)] + CCN1C(=O)N(c2c(F)c(OC)cc(OC)c2F)Cc2cnc3[nH]c(CN4CCOCC4)cc3c21 [pemigatinib]	0.137
OCCOCCN1CCN(C2=Nc3ccccc3Sc3ccccc32)CC1 [Quetiapine Fumarate] + CCN1C(=O)N(c2c(F)c(OC)cc(OC)c2F)Cc2cnc3[nH]c(CN4CCOCC4)cc3c21 [pemigatinib]	0.983
Cc1nc(Nc2cnn(C3CCNCC3)c2)nc2c1N(C)C(=O)c1cc3ccccc3cc1N2C + CCN1C(=O)N(c2c(F)c(OC)cc(OC)c2F)Cc2cnc3[nH]c(CN4CCOCC4)cc3c21 [pemigatinib]	0.926
Cc1[nH]c2ccccc2c1CCNC(=O)c1cccs1 + CCN1C(=O)N(c2c(F)c(OC)cc(OC)c2F)Cc2cnc3[nH]c(CN4CCOCC4)cc3c21 [pemigatinib]	0.957
N=C(N)c1ccc(OCCCCCOc2ccc(C(=N)N)cc2)cc1 [Pentamidine] + CCN1C(=O)N(c2c(F)c(OC)cc(OC)c2F)Cc2cnc3[nH]c(CN4CCOCC4)cc3c21 [pemigatinib]	0.884
N#Cc1c(O)c2c(-c3ccc(-c4ccccc4O)cc3)csc2[nH]c1=O + CCN1C(=O)N(c2c(F)c(OC)cc(OC)c2F)Cc2cnc3[nH]c(CN4CCOCC4)cc3c21 [pemigatinib]	0.976
CCCCC(=O)O[C@H]1CC[C@H]2[C@@H]3CCc4cc(O)ccc4[C@H]3CC[C@]12C [Estradiol valerate] + CCN1C(=O)N(c2c(F)c(OC)cc(OC)c2F)Cc2cnc3[nH]c(CN4CCOCC4)cc3c21 [pemigatinib]	0.881
Cc1nc2ccc(-n3ncc(C(=O)c4cc5ccccc5[nH]4)c3N)cc2[nH]1 + CCN1C(=O)N(c2c(F)c(OC)cc(OC)c2F)Cc2cnc3[nH]c(CN4CCOCC4)cc3c21 [pemigatinib]	0.886

Reference: the supplement of paper PMC9588766
